In the supplement of paper PMC3334620:
In all, about 33,000 sequences were measured (“E-score (-0.5 to 0.5)”: median about -0.013, highest 2% from about 0.3 on). The list shows a part of the results.

These sequences were tested against T1, Msn1 (UniProt P22148) (assay: PBM E-score (8-mer binding enrichment) (E-score (-0.5 to 0.5)); higher = stronger / more preferred TF binding; most listed sequences are background and not binding sites). Conditions: protein concentration: 200 nM; construct: GST-full length.
T1 sequence: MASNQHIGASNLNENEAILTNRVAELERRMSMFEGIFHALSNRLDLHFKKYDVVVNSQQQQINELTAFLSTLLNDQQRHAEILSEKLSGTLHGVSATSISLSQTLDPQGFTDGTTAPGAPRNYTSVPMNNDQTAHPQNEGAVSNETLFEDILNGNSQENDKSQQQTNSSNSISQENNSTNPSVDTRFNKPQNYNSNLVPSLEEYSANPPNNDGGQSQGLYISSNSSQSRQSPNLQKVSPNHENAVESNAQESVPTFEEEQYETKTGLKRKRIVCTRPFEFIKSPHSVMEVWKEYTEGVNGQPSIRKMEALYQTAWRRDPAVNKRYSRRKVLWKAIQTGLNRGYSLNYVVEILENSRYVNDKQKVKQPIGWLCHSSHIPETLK
How it was run: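 Yeast transcription factors, full-length or as DNA-binding domains, were expressed with a GST tag using PURExpress in vitro transcription/translation. At about 100-200 nM they were applied to universal all-10-mer Agilent arrays, double-stranded by primer extension on fresh or once-stripped slides. Fluorescent anti-GST detected bound protein, and masliner normalised the scans. E-scores for ungapped eight-base words, pooled with reverse complements, came from the Universal PBM Analysis Suite.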

Sequence | PBM E-score
GCTCCGGA | 0.00188
ACAAGAGT | 0.09
ATAAGAAG | 0.0434
ATGTTCAG | 0.0111
CACTGTAA | 0.0549
CTGACACA | 0.0572
ATACGCCC | -0.197
GAGGGGGC | -0.444
CATTACTA | -0.115
AGGTTCTA | -0.173
CAAGCAGC | -0.0813
ATCCACGA | 0.0751
CGGCAATA | 0.121
TAGAACTA | 0.0187
AGCCAGGC | -0.0733
CGAATTCA | -0.0273
AAATGGCG | 0.122
CTGGATCA | -0.0898
CCTACGTA | 0.0633
AGCAATGA | 0.107
GGAGTTCA | 0.0298
TGATCACA | -0.13
AGCAACGG | 0.0668
ATCGGTTG | 0.0638
ATGAGGCG | -0.136

Sequence | PBM E-score
ACGATAGT | 0.0402
CTGGGGGC | -0.417
CCAAACTA | 0.119
CGGAAAGA | 0.06
GAGCTGCC | -0.275
AACGAACT | -0.0401
TCGTCGCA | -0.0341
CCATAACC | -0.0962
GACACTGC | 0.13
CTGGTGTC | -0.0278
CACAATCC | 0.119
AAGGAGCA | -0.109
CTCGACAG | -0.14
ACTCACGA | 0.0549
ATTTTTAG | -0.0546
CTAGGGGA | -0.307
CAGTCACA | -0.0815
AATCTCAT | 0.0888
AGCCAAAT | 0.0175
AAATGTCG | 0.412
CCGTCTGC | 0.0675
ACAACGAG | 0.0375
ATGCGGTA | -0.01
TATTACAA | 0.217
ACCTGAAA | 0.0221

Sequence | PBM E-score
AAGGGAGC | -0.124
CAGCGGTC | -0.172
ACTTCCGG | 0.131
GATAAAGC | 0.0285
AAGCATGT | 0.182
CCCAGTCA | -0.227
CCGGATCC | -0.0654
ACCTGACA | -0.0239
GGGTGTAC | -0.0378
ATTACTGG | -0.119
ACTATGTG | -0.0783
GTAGTCGA | 0.119
AGTACATG | 0.266
CGCGAAGC | 0.00204
CGATCACG | 0.11
CGGCCACG | -0.189
ACAGTCTC | -0.244
AGCGCAGG | -0.264
ACTTAGAG | -0.208
CGGACTAC | -0.0515
CAGCAGGC | -0.0689
GCACCTTA | 0.00327
CAGGATTC | 0.0496
GGAATTGA | 0.0274
ACTAATGA | 0.07

Sequence | PBM E-score
GGGTTACA | -0.0367
ACGTATTA | 0.157
CACTCGTA | -0.138
TCCGCTCA | -0.209
ATTGAAAC | 0.0381
AGCCGGTG | -0.144
CTCGCAGA | -0.0145
ATCCTACC | -0.182
ACGTCCAT | 0.219
GAGGGTAC | -0.202
AGGTGATC | 0.0669
CTAGTGGC | -0.0686
AACAGGTA | -0.0409
AATAGGCC | -0.113
CGTCGAAC | -0.0425
AGACAAAC | 0.446
CTTTAATA | 0.193
ACATGCAG | 0.152
CTACCGAG | -0.171
AGCAAGCC | -0.232
CCGGATGA | 0.0502
AAGCGTGA | 0.0467
CCTCGACC | -0.274
CTCAGCGA | 0.14
CCACCCGG | -0.204

Sequence | PBM E-score
AACAAACT | 0.127
ACTCAAAG | 0.0435
AGTGGTCA | -0.147
ATGAGGTC | -0.152
CAAACGAA | 0.0846
CCAAGACG | 0.0171
ACTGTCCA | 0.0386
CTTGTCGA | 0.0891
AACCTATA | 0.109
AGCTGGTC | -0.0428
CGTCTAAG | 0.0381
ATCGACAG | -0.201
GTTGTCTA | 0.165
CACACAGA | -0.00294
ACCTGGAT | -0.0377
TATCGATA | 0.043
AGCCTAAG | -0.183
ACGCGTAT | 0.217
GGAGTAGA | 0.0313
ACTGTTTC | -0.119
ACCTATCT | 0.0511
AGCCCGAC | -0.0378
GATCGAGC | -0.0432
GACCCCTA | -0.323
AATGAGGG | -0.104

Sequence | PBM E-score
GACAAAGC | 0.393
CTTGCACA | 0.00485
CCCACGTC | 0.12
CGCGGCAG | -0.0189
AGAGCCAT | 0.148
GCCAGTCC | -0.367
AGACCCCG | -0.0375
CTGCACTC | -0.185
CAGTTCCG | -0.0923
AAATTTGG | 0.104
ATAAGCGC | -0.0259
ATGAGTCC | 0.101
CACGCAAG | 0.168
ACTGCACC | -0.0307
GTTAGTCA | 0.00798
CGGGGACA | 0.396
AACCGTGT | 0.107
AGTGCCGG | 0.112
GTTTGCCA | -0.0238
AAACCCAT | 0.219
ACGAGACG | -0.186
ATGATGGG | -0.131
GCGTCAAC | -0.135
AGCTTGAT | -0.0595
CACTAAGC | -0.138

Sequence | PBM E-score
ATAGCAAG | -0.0015
CCGCGTAA | -0.0612
ATGCGCTA | 0.0715
CTTAAGAC | -0.0376
TAGTCAAA | 0.0718
CATTGAGC | 0.0312
CGAAGAGC | -0.155
ACGGTCCT | -0.252
CGATCTTA | 0.0983
TTACGGAA | 0.139
CGTAAAAG | 0.0215
CGATGCGC | -0.00688
AACGATAT | 0.153
CAACTCAA | 0.168
CTGAGGCA | -0.0849
AAAATCGA | 0.0831
GCGTCTGA | -0.101
AAAATCCG | 0.141
ATACTATA | 0.111
ACACCAGA | 0.0811
CCAAGGGC | -0.126
AAACGTTA | 0.119
